Reference: the RNAGym collection of RNA variant scans (doi:10.7554/elife.90254)
The source gives no read counts; variants with many changes may rest on few reads.

B1: OR4K15 (parent)
chain: GUUAACGGUCAUAGGCCAUGGAAACUAGGAGCACCAUUUCGCUGCCAGUGAAGAAAUGAACAAAGAAAAUCUGGGCCAGGCAGGCAUCAAAAGAAAUAGUCUUGCGCUCAACCAGAAAGUCUGUAAUCAUUUUAAGGGUA

Variants of: B1
Test: self-cleavage, relative activity (ratio to wild type); higher = more cleavage; in vitro, sequencing; the parent is a self-cleaving ribozyme

Variant	self-cleavage
U19C A95G U124C	0.43
A22G C42U A91G	1.3
A22C G48U U49C	0.92
U19C A78G U103C U108C A118C U132C A140G	0
U19C U26C A114U	0.13
U19C A56G A66U C101A	0.05
U19C U39C A68U U130C G137U	1.45
A22G A24G U49C C105G A118U	0.01
G20A A69G C85G	1.03
U19C U38C A62U A66G	1.22
U19C A66G A90G	1.46
U19C A68G A96G	0.31
U19C A52U A60G U87C U122A	0.27
G21C A60U A64G U100C	1.5
U19C A59G A92G	1.42
A22G A54G A55G A117G U130C	1.44
A22G A55G A78U A96G	0.14
A22G A56C A125G	0.38
A22G A54U U103C	1.1
A22G A30G A89G	1.12
U19C U38C A114G A118U	0.09

Variant	self-cleavage
A22G A27G A47U A68G A92G A98G	0.08
G21A A116G U127C	0.42
U19C G29A A33G A111G A117G	0.01
U19C A59G A82G U100C	1.06
U19C U38C A55G A86G	1.13
A22G A59G U132C	0.92
U19C A82U U103C A116G	0.02
A22G A24G A47U U57C A67U A82U	0.21
U19C G31A A89U	0.59
A22G A60G A68U A129G	0.49
U19C U72C A126G	0.1
G20U C32U A90G U97C A98G	0.23
A22G A36G A118G	0.75
U19C A111U U124G	0.05
U19C U39C A54U A55G A63C	1.33
A22G A30U U37G A82U	0.19
A22G A98G U108C	0.03
A22G A67G U127C	1.01
U19C U49C A82U U87C	0.17
A22G A23G G115A U122A	0.04
A22G A62G G73A	0.32

Variant	self-cleavage
A22G A64G A82U A118G	0.07
A22G A27U U38A A92G U132A	0.75
U19C A62U A67U	1.81
U19C A118G U120C	0.89
U19C U39C A55G	1.43
A22G U26A A51U A98U U122C	1.09
G20A U37C A111G	0.02
G20A A47G U49G G65A U122C	0.7
U19C A67G A78U A82G	0.12
U19C A36U A66G A67G	0.97
U19C U87G A116G	0.2
U19C C42A A54G	1.51
A22G A56G A140G	1.14
G20U A66G A117G	2.01
A22G A27G A51G U127C A135G	0.05
U19G A55G A59G U103C C105A A110G	0.02
U19C U39C U49C A63U A98G A116G U139C	0.36
U19C A51G A96U U102C	2.83
A22G A64U A66G U70C A78G	0.03
G20A A60G A89G	1.18
G21U A94G U108C A129G	0

Variant	self-cleavage
A22G A51U U132C	1.41
A22G C35U C128U	0.17
A22G G115A U132C	0.14
U19C A47G A63G C112G	0
U19C U38G A66G G73A U108C U127C	0.01
U19C A27G A78G	0.22
A22G C40U A55G	0.66
U19C A24G A27U A60G	1.54
A22G A111U U122C	0.07
A22G G31U C42U U102C	2.66
U19C A33U U37G U43G A56G	1.35
A22G A94G U108C	0.05
U19C G58U A114G A116G U132C	0.05
A22G A30G A33G	0.9
A22G A36C A78G U103C U124C	0.06
U19C A66G A69U U72C A98G A110G	0.02
U19C A86G U100C	2.7
U19C A52G U97A A116U A134G	0.26
G20U U49C G123A	1.29
U19C U87C U139A	1.1
G21C A92G U130C	0.43
